# Data as given in PubChem BioAssay (NCI).
# Where a structure was tested more than once in an assay, its records may differ in their call.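 The endpoint reported here, percent growth, reads 100 for growth as untreated, 0 for no net growth and -100 for all cells dead.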 Not every entry of the source has a single result; some have several. Only these are listed. Rule for the calls: active = growth percent below 10; inactive = the rest. An entry can have further records. These are repeated runs of one drug, at the concentration stated with the values; one value stands for one run. Marks such as (2×) count equal records among those shown.
# What was measured:
# OVCAR-4 ovarian = test: NCI-60 one-dose screen, 48 h (100 = growth as untreated, 0 = no growth, -100 = all killed); conditions: 2.5 mM
# SK-OV-3 ovarian = test: as above; conditions: 2.5 mM
smiles,measurement,setting,value
O=c1[nH]cc(F)c(=O)[nH]1,growth,OVCAR-4 ovarian; runs of 1992,"active: -6.6, -10.2, -40.2, -65, -43.7, -24, 3.51, -14.5, 6.55, 6.74, -50.4, -47.9, -51.8, -22.2, -3.47 (2×), -19.1, 0.441, 3.41, -13.8, -39.6, -39.5, -2, -21.5, -20.7, -10.8, 7.26, -13.7, 1.93, -28, -19.3, -28.4, -3.29, 5.26, 2.95, 9.18, -39.9, -2.41, -59.1, -14.6, 1.94, -32.3, -4.72, -23.5 (2×), -16.8, -4.76, -17.1, -28.5, -2.55, -30.2, -20.3, -38.1, -31.7, -49.6, -33.4, -30.7, 2.56, -21.4, -19.6, 3.57, -2.54, -6.29, -38, -33.9, -8.69, 3.87, -32.5, -53.7, -13.5, 2.15, -1.06% and inactive: 26.4, 13.1, 19.8, 27.3 (2×), 13.2, 10.3, 14.8, 13.3, 25.4, 31.4, 11.8, 27, 19, 15.8, 25.3, 95.8, 27.5 (2×), 22.1 (2×), 11, 14.2, 10.1, 12.2, 20.8, 13.5, 16.6, 29, 24, 33, 10.9, 11.1, 16.8, 31, 18.4, 41.2%"
same,growth,OVCAR-4 ovarian; runs of 1993,"inactive: 38, 37.7, 21.7, 23.1, 22.9, 44.8, 39.6, 18.3, 19.8, 11.4, 15.8, 22.5, 41.2, 34, 13.1, 31.8, 102, 92.1, 19.7, 21.5, 18.5, 65.9, 16.4, 24.7% and active: 3.1, -14.2, -47.1 (2×), -38.8, -13.3, -30.8, 6.19, -43, -31.4, -12.7, -47.9, -13.2, -17.5, 5.57, -21.9, -1.53, -2.69, -22.9, -26.6, -9.75, -3.62, -17.7%"
same,growth,OVCAR-4 ovarian; runs of 1994,"inactive: 36, 82.5, 23.2, 44.6, 14.3, 27.4, 31.1, 10.5, 13, 20.6, 12, 12.5, 36.3, 57, 16.7, 17.1, 21.5% and active: -7.92, -33, -18.2, 1.1, -18.6, -7.46, -10.3, 1.99, -9.49, 3.64, -30.9, -27.7, -16.2%"
same,growth,OVCAR-4 ovarian; runs of 1995,"inactive: 11.3, 27.8, 22.3, 13.4, 14.7, 26.7, 28, 34.4, 27.2, 20.7% and active: -18.6, -16.3, -1.02, -9.96, -11.4, 9.83, -21.6, -18.2, 6.32, 0.884, -4.24, -17.3, -28.2, 0.893, -9.23, -15.8, 6.19, 2.06, -12.9, -8.5, 7.23, -5.08, -14.1, -15.6, 2.79, 8.79, -0.79, -7%"
same,growth,OVCAR-4 ovarian; runs of 1996,"active: -12.2, -16.1, -15, 2.79, -0.287, 9.44, -36, 9.72, -0.156, 1.1, 8.98, -10.4, -34.4, -7.1, -2.77, 4.06, -11, -22.7, -6.31, -8.44, -0.985, -11.4, -2.57, -0.645, -15.2, -5.78, -14.8, -14, -32, -41.8, -7.53, -7.21, -1.53, -15.9% and inactive: 11.4, 32.1, 28.5, 14.7, 19.2, 47.5, 24.3, 25.3, 39.1, 23, 46.1, 31.3, 32.5, 20.2, 21.5, 19.9, 15.3, 33.3, 10.4, 50.1, 40.3, 12.4%"
same,growth,OVCAR-4 ovarian; runs of 1997,"inactive: 16.7 (2×), 42.3, 12.5, 12.2, 10.8, 18.3, 24.8, 26.2, 23.9, 58.7, 11.7, 25.2, 25.5, 14.4, 22.2, 23.2, 12.9, 27.9% and active: 0.832, 8.92, -1.37, 3.9, -5.05, -6.46, -10.3, -32.7, 7.99, -9.82, -5.75, -6.87, -7.54, 2.52, 7.41, 4.92, -14.6, -0.351, -8.84, -11.2%"
same,growth,OVCAR-4 ovarian; runs of 1998,"active: -1.08, -19.5, -21.6, -25, -17.8, -24.3, 5.99, -18.8, -15, 7.17, -2.59, 1.76, -32.9, -25.8, -16.6, -8.83% and inactive: 19.3, 16.1, 31.6, 27.1, 37.1, 26.7, 36.9, 62.6, 36.6%"
same,growth,OVCAR-4 ovarian; runs of 1999,"inactive: 52.2%, 49.9%, 24.1% and active: -56.3, -55.1, -21.3, -19.4, 1.87, 3.55, 0.714, 7.84, 1.25, 4.75, -58.6, -100, -6.12%"
same,growth,OVCAR-4 ovarian; runs of 2000,"active: 1.97, -11.3, -7.81, -33.6%"
same,growth,SK-OV-3 ovarian; runs of 1991,"active: 1.22, -7.87, -51, -19.5, -2.39, -1.51, -50, -34.5, -0.61, -1.91% and inactive: 35.9, 39.2, 18.1, 31.9, 19.7, 40%"
same,growth,SK-OV-3 ovarian; runs of 1992,"inactive: 17.5, 57.5, 16 (2×), 18.1, 34.5, 33.3, 33.4, 18.7, 28.9, 23, 37.9, 79.8, 11.7, 13.9, 28.8, 31.5, 31.8 (2×), 18.2, 26.5, 20.4, 12.9, 16.1, 10.9, 25.2, 10.4, 18.6, 35.1, 16.7 (2×), 10, 26.4, 18.3, 16.6, 14.3, 17.6, 10.8, 17, 24.1, 51.8, 35.8, 10.7, 29.8, 11.2, 16.2, 47.1, 12.1, 15.4, 20.6, 26.6, 10.3, 22.8, 28.1, 14% and active: 6.06, -1.44, 7.29, 9.45, 9.77, -24, 5, -14.2, -19.7, -0.988, 1.62, 6.84, 9.42, 9.66, 4.9 (2×), 3.65, -23.9, -1.73, -5.57, 1.82, 0.759, -17.9, -26.5, -21.3 (2×), 0.573, 0.952, -45, -31.2, -11.7 (2×), 7.71, 3.94, -3.76, -6.08, 8.71, 0.25, 0.521, -13.7, -5.09, -13.6, -20.2, -14.6, -29.8, -69, -5.38, 5.43, 9.91, 8.65, -3.51, -4.73, -30.2, -23.5, -32, 7.15, 1.91, -43.1, -10.4, -69.5, 1.72, 8.4, -54.1, -22.4%"
same,growth,SK-OV-3 ovarian; runs of 1993,"active: 6, -12.6, -8.36, -1.59, 5.64, 5.03, -12, 8.76, 5.95% and inactive: 22.1, 37.3, 30.4, 47.5, 31.8, 59.9, 39.2, 41.8, 16.7, 38.2, 37.4, 17.6, 21.7, 21.9, 24.6, 15.9, 14.6, 22.9, 14.9, 13.1, 26.7, 29.1, 25, 98.8, 46.7, 93.4, 58.4, 18.7, 18.3, 34.2, 38.5, 29.9, 10.7%"
same,growth,SK-OV-3 ovarian; runs of 1994,"inactive: 21.7, 30, 46.3, 22.9, 25.4, 22, 35.5, 22.6, 21.2, 27.4, 13.1, 31.7, 22.5, 16.5 (2×), 28.9, 27.2, 25.7, 20.7, 24.7, 38.1, 13.8, 28.3% and active: -9.37, 3.65, 5.29, -0.576, -31.5, -4.79, -29.8%"
same,growth,SK-OV-3 ovarian; runs of 1995,"inactive: 43.7, 25, 35, 22.7, 24.7, 34.6, 36.6, 25.8, 30.5, 26.5, 14.9, 60.6, 26.6, 29.6, 34.3, 81% and active: -15.3, -14.4, -0.136, 3.23, -0.355, -31.7, -18.5, -7.47, -24.5, 4.62%"
same,growth,SK-OV-3 ovarian; runs of 1996,"inactive: 33, 24.4, 47.2, 37.8, 48.2, 72.3, 19.6, 31.2 (2×), 30.7, 35.8, 37.4, 26.6, 35.7, 23, 40.3, 19.4, 31.1, 21.7, 20.6, 21.4, 22.7, 30, 46.6, 24, 29.8, 26.7, 21.8, 44.2, 38.4, 55.3, 56.8, 48.6, 43.2, 53, 50.8, 30.3, 56.3, 62.7 (2×), 43.6, 38.5, 24.9, 47.3, 43.1, 74.5, 58.1, 32.7, 30.6, 57.2, 20% and active: -3.82, -0.327, -1.2, 9.16, 0.871, 8.43, -38.2%"
